# The campaign covered roughly 140,000 compounds. About 240 (0.17%) were called active. This list was built around the results that the source calls inconclusive (neither active nor inactive); the mix of calls is not that of the screen. Calls come from the whole dose curve; as a rule, active = well fitted inhibition curve with a large enough effect; inconclusive = small, poorly fitted or top-dose-only effect; inactive = no such curve, though single readings can be large or run the other way. Potencies of inconclusive entries are doubtful fits and often do not repeat.
# Assay: Primary qHTS assay for inhibitors of alpha-synuclein gene (SNCA) expression; note: nearly all actives have a fitted effect of over 45% in size
# Conditions: HEK-293 SNCA-luciferase knock-in, luminescence, 24 h; series mostly up to 57.2 µM
# Potency is the fitted concentration of half-maximal effect; tags give direction and shape of the fitted curve.
row,Compound,Potency
1,CCc1ccc(S(=O)(=O)N(C(=O)Oc2ccccc2)c2ccc3oc(C)c(C(=O)OC)c3c2)cc1,"inconclusive: 1.78 µM [inhibitor, full curve, poor fit]"
2,CC(C)C1=NOC2(CCN(Cc3ccc(C(F)(F)F)cc3)CC2)C1,"inconclusive: 56.2 µM [inhibitor, single point]"
3,COc1ccc(CN(C(=O)c2ccco2)c2ccc(CC(=O)NCc3ccc(F)cc3)cc2)cc1,"inconclusive: 0.708 µM [inhibitor, single point]"
4,CCOC(=O)c1sc(NC(=O)c2cc3nc(-c4ccccc4)cc(C(F)(F)F)n3n2)c(C(=O)OCC)c1C,"inconclusive: 7.08 µM [inhibitor, single point]"
5,CS(=O)(=O)N1CCCC(C(=O)N2CCC(c3ccccc3)CC2)C1 (stereo not given),inactive
6,COc1ccccc1-c1nc(N(C)Cc2ccco2)c2ccccc2n1,"inconclusive: 17.8 µM [inhibitor, single point]"
7,Cc1ccc(N(CC(=O)N2CCN(c3cccc(C)c3C)CC2)S(=O)(=O)c2c(C)nn(C)c2C)cc1,"inconclusive: 39.8 µM [inhibitor, single point]"
8,CCOc1ccc(NC(=O)CSc2cn(CC(=O)N3CCOCC3)c3ccccc23)cc1,"inconclusive: 31.6 µM [inhibitor, single point]"
9,COc1ccccc1C(=O)N1CCCCC1c1noc(COc2ccc(C)cc2)n1 (stereo not given),inactive
10,Brc1c(Br)c(Br)c2[nH]cnc2c1Br,"inconclusive: 12.6 µM [inhibitor, partial curve, poor fit]"
11,COc1ccc2[nH]c(=O)c(CCC(=O)NCCN3CCCCCC3)cc2c1,inactive
12,Cc1cccc(NC(=O)c2ccc(Cn3nc(N4CCN(c5ccccc5)CC4)ccc3=O)o2)c1C,"inconclusive: 39.8 µM [inhibitor, single point]"
13,CCOC(=O)C1(Cc2cccc(C(F)(F)F)c2)CCN(Cc2ccc(COC)o2)CC1,inactive
14,Cc1cc(Cl)ccc1OCCSc1nnc(-c2cccs2)o1,"inconclusive: 39.8 µM [inhibitor, single point]"
15,CC(Cn1cccn1)Nc1ccc(-c2nc(COc3ccccc3)no2)cn1 (stereo not given),inactive
16,CC(C)OC(=O)N1CCC(COc2cnc3c(ccn3CC(N)=O)c2)CC1,inactive
17,COc1cc(OC)c(NC(=O)N2CCCC2c2nncn2C2CCCC2)cc1Cl (stereo not given),"inconclusive: 39.8 µM [inhibitor, single point]"
18,CC1(COc2cccnc2)COc2ccc(C(=O)NCCc3ccccc3)cc2N1 (stereo not given),inactive
19,CC1=C[C@@H](CN2CCN(CCO)CC2)[C@H](C(C)C)C[C@H]1Cc1nnc(Cc2c[nH]c3ccccc23)o1,"inconclusive: 31.6 µM [inhibitor, single point]"
20,COc1ccc(CN2Cc3[nH]cnc3C[C@H]2C(=O)N(C)Cc2ccccc2)c2ccccc12,inactive
21,COc1ccccc1N1CCN(CC[C@@H]2CC[C@H](O)[C@@H](C(=O)NC3CCCCC3)O2)CC1,inactive
22,CN1CC(=O)N(C2CCCC2)Cc2c(NC3CC3)ncnc21,"inconclusive: 44.7 µM [inhibitor, single point]"

row,Compound,Potency
1,CC1(c2ccccc2)N(Cc2ncccn2)C(=O)OC12CCN(C(=O)c1ccc(Oc3ccccc3)cc1)CC2 (stereo not given),"inconclusive: 39.8 µM [inhibitor, single point]"
2,COC(=O)c1ccc2c(c1)N(Cc1cc(C)ccc1C)C(=O)c1ccccc1S2(=O)=O,"inconclusive: 11.2 µM [inhibitor, partial curve, poor fit]"
3,CCOc1ccc(S(=O)(=O)N2CCC(n3c(C)nc4cccnc43)CC2)cc1,"inconclusive: 31.6 µM [inhibitor, single point]"
4,CCn1c(C2CCCN(C(=O)NCc3ccc(OC)cc3)C2)nn(C)c1=O (stereo not given),"inconclusive: 3.55 µM [inhibitor, full curve]"
5,Cc1ccc(-c2noc(CCCC(=O)N3CCc4nc5cc(-c6ccccc6)[nH]n5c(=O)c4C3)n2)cc1,"inconclusive: 11.2 µM [inhibitor, partial curve, poor fit]"
6,CN(CCC(C)(C)O)c1ccc(C(=O)N2CCCCC2CCn2cccn2)cn1 (stereo not given),"inconclusive: 7.94 µM [inhibitor, partial curve]"
7,COc1ccc(NC(=O)CCc2c(C)nc3cc(-c4cccc(F)c4)nn3c2C)cc1Cl,"inconclusive: 17.8 µM [inhibitor, single point]"
8,CC(=O)N1CCC(N2CCC[C@H]2c2nc(-c3ccc(-c4ccncc4)nc3)no2)CC1,"inconclusive: 2.51 µM [inhibitor, full curve, poor fit]"
9,COc1cccc(CC(=O)N2CCC(Oc3ncccc3C(=O)N(C)C)C2)c1 (stereo not given),inactive
10,CN(C(=O)CSc1nc2ccccc2n1CC(=O)N(C)C1CCCCC1)c1ccc(F)cc1,"inconclusive: 7.08 µM [inhibitor, single point]"
11,CN(Cc1ccc2nsnc2c1)Cc1cn(-c2ccccc2)nn1,inactive
12,CN(CCc1ccccn1)C(=O)[C@@]12CCCC[C@H]1N(C)C(=O)CC2,"inconclusive: 8.91 µM [inhibitor, single point]"
13,CCc1ccccc1NC(=O)c1ccc2c(c1)c(C)c(C)n2Cc1ccccc1,"inconclusive: 7.08 µM [inhibitor, single point]"
14,Cc1cc(C)c(NC(=O)C2CCCN(C(=O)c3cnn(-c4ccccc4)c3-n3cccc3)C2)c(C)c1 (stereo not given),"inconclusive: 25.1 µM [inhibitor, single point]"
15,CC(Oc1ccc(O)cc1)(P(=O)(O)O)P(=O)(O)O,"inconclusive: 0.0068 µM [inhibitor, single point]"
16,O=C1CC(c2ccc(Br)cc2)c2c(ccc3ccccc23)N1 (stereo not given),"inconclusive: 17.8 µM [inhibitor, single point]"
17,Cc1cccc(-n2c(SCC(=O)Nc3ccc(C)c(C)c3)nc3n[nH]c(C)c3c2=N)c1,"inconclusive: 28.2 µM [inhibitor, single point]"
18,Cc1ccc(CN2C(=O)COC[C@H]2C(=O)Nc2ccc(F)c(F)c2)cc1,"inconclusive: 7.94 µM [inhibitor, partial curve]"
19,COc1ccccc1CC(=O)N1CCC2(CC1)NC(=O)N(c1ccccc1)N2,inactive
20,Cc1noc([C@@H]2CN(CCCc3ccccc3)C[C@H]2CO)n1,inactive
21,O=C(CN1CCN(Cc2ccccc2F)C1=O)NCc1ccccc1,"inconclusive: 39.8 µM [inhibitor, single point]"
22,Cc1ccc(CNC(=O)c2c(Nc3ccccc3C)sc(C(=O)c3ccc(F)cc3)c2N)cc1,"inconclusive: 15.8 µM [inhibitor, single point]"

row,Compound,Potency
1,COCCN1CCOc2nc(-c3cc(F)cc(OC)c3)ncc2C1=O,"inconclusive: 50.1 µM [inhibitor, single point]"
2,O=C(NCCc1ccccc1F)C1CN(C2CCCCC2)C(=O)N1 (stereo not given),inactive
3,Cc1ccccc1SC1CCN(c2cc(C3CC(O)C3)ncn2)CC1 (stereo not given),"inconclusive: 7.08 µM [inhibitor, full curve, poor fit]"
4,CC(C)Nc1cc(-c2c[nH]c(C(=O)N[C@H](CO)c3cccc(Cl)c3)c2)c(Cl)cn1,"inconclusive: 17.1 µM [inhibitor, partial curve]"
5,COc1ccc(C(=O)Nc2ccc3c(N4CCOCC4)ncnc3c2)c(C)c1,inactive
6,Cc1ccc(NC(=O)C2CCN(S(=O)(=O)c3ccc4c(c3)CCCC(=O)N4)CC2)cc1N(C)C,"inconclusive: 25.1 µM [inhibitor, single point]"
7,CCC(O)c1nc2ccccc2n1Cc1cc(C)ccc1C (stereo not given),inactive
8,CC(C)c1ccc(NC(=O)c2cc3c(=O)[nH]c4ccccc4c3n2C)cc1,"inconclusive: 7.94 µM [inhibitor, single point]"
9,CCC1CN(C(=O)N2CCC(C(=O)NCc3cccc(F)c3)CC2)c2cc(C)ccc2O1 (stereo not given),"inconclusive: 39.8 µM [inhibitor, single point]"
10,O=C(CN1C(=O)c2cccnc2Sc2ccccc21)Nc1cc(F)ccc1F,"inconclusive: 2.51 µM [inhibitor, partial curve, poor fit]"
11,O=C(NCc1ccccc1)c1ccc2nnc(-c3cccnc3)n2c1,active: 25.1 µM
12,COc1ccc(NC(=O)C2(C)CCc3cnc(N4CCOCC4)nc32)cc1 (stereo not given),inactive
13,CCC(C)NC(=O)N1CC(Oc2ccc(-c3noc(COC)n3)cc2)C1 (stereo not given),inactive
14,Cc1cc(Nc2cccc(Cl)c2)nc2ccc(NC(=O)COc3ccc(Cl)cc3)cc12,"inconclusive: 7.08 µM [inhibitor, single point]"
15,O=C(c1cccc(C(F)(F)F)c1)N1CCOCC2(CN(Cc3ccccc3)C2)C1,"inconclusive: 7.08 µM [inhibitor, full curve]"
16,O=C(NCc1nnc2cc(-c3nc(C4CC4)no3)ccn12)c1ccc(F)cc1Cl,"inconclusive: 39.8 µM [inhibitor, single point]"
17,c1ccc(-c2nc(-c3ccncc3)no2)c(OC2CCN(C3CCCC3)C2)c1 (stereo not given),inactive
18,CC1=C[C@@H](CNS(=O)(=O)c2ccccc2)[C@H](C(C)C)C[C@H]1Cc1nc2ccncc2[nH]1,"inconclusive: 11.2 µM [inhibitor, partial curve, poor fit]"
19,Cc1nn(C)c(C)c1CCNC(=O)C1(CCO)CC12CCOCC2 (stereo not given),"inconclusive: 10 µM [inhibitor, partial curve]"
20,CCN(CC)C(=O)CCc1c(C)nn(-c2ccccc2)c1Oc1ccc(F)cc1F,inactive
21,O=C(Cc1ccccc1Cl)N1CCC2(CC1)NC(=O)N(c1ccc(F)cc1)N2,"inconclusive: 1.58 µM [inhibitor, partial curve, poor fit]"
